Test results published in PMC11674122.
Results are given in words; binding and its absence hold for the method and conditions named. For part of these data: In cells and extracts the contact can be indirect. Some results given as binding are weak or reduced against the parent protein; the word gives no strength. For part of these data: Where a sequence is shown, tags or fusion partners need not be part of it.

Key:
[1] = target: T1, HA-tagged NEK2 (Never In Mitosis A (NIMA)-related serine/threonine protein kinase 2) (human) (UniProt P51955); test: co-IP; HeLa cells co-transfected with HA-NEK2 and Flag-RhoGDI1 or Flag-RhoGDI2; lysates immunoprecipitated with HA antibody, Western blot with HA and Flag antibodies
T1 sequence: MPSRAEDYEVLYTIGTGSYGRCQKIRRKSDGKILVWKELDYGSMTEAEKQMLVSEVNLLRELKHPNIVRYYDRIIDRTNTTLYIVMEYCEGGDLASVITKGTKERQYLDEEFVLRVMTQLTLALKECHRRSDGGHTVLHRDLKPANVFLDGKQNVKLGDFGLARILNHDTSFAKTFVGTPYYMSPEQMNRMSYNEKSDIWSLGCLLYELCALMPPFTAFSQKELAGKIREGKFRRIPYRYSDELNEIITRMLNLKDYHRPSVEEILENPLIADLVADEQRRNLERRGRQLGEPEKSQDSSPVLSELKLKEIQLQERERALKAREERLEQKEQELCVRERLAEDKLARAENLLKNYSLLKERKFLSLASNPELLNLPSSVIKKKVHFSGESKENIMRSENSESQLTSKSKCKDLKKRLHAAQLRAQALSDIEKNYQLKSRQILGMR

[2] = target: T2, endogenous NEK2 (human (endogenous in HT-29 and HCT116)) (UniProt P51955); test: co-IP; HCT116 cells transfected with mock vector or GFP-tagged RhoGDI1 aa 112–134; lysates immunoprecipitated with IgG or RhoGDI1 antibody; WB, band intensities NEK2/RhoGDI1
T2 sequence: T1 sequence

[3] = target: T3, endogenous RhoGDI1 (human (endogenous in HT-29, HCT116 and DLD-1)) (UniProt P52565); test: co-IP; DLD-1 cells stably expressing mock or HA-NEK2, serum-free media 24 h; lysates immunoprecipitated with RhoGDI1 antibody; WB, band intensities 14-3-3 tau/RhoGDI1
T3 sequence: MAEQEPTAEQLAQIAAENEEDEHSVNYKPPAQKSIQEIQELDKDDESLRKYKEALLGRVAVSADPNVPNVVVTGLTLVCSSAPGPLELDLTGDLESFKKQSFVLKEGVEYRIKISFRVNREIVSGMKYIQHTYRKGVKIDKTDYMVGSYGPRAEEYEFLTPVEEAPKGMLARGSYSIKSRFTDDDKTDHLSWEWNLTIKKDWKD

[4] = target: T4, recombinant GST-tagged RhoGDI1 (Cytoskeleton) (UniProt P52565); test: pull-down; GST pull-down: GSH beads reacted with recombinant RhoGDI1 or RhoGDI2 overnight at 4 °C, then mixed with active His-NEK2 overnight at 4 °C; three washes; WB; both purified
T4 sequence: T3 sequence

[5] = target: T5, recombinant GST-tagged RhoGDI2 (Novusbio) (UniProt P52566); test: as above
T5 sequence: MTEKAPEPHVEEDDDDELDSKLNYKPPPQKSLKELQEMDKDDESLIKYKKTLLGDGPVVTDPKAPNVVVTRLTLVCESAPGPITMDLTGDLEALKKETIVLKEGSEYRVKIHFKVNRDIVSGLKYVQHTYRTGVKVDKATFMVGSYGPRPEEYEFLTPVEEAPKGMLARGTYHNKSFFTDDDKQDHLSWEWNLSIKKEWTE

[6] = target: T3, endogenous RhoGDI1 (human (endogenous in HT-29, HCT116 and DLD-1)); test: co-IP; endogenous proteins; HT-29 and HCT116 lysates (RIPA buffer) immunoprecipitated with IgG or RhoGDI1 antibody at 4 °C for 24 h, agarose beads 2 h; WB
[7] = target: T3, endogenous RhoGDI1 (human (endogenous in HT-29, HCT116 and DLD-1)); test: co-IP; HCT116 cells transfected with mock vector or GFP-tagged RhoGDI1 aa 112–134; lysates immunoprecipitated with IgG or RhoGDI1 antibody; WB, band intensities NEK2/RhoGDI1
[8] = target: T6, active His-NEK2 (recombinant His-tagged NEK2) (UniProt P51955); test: pull-down; His pull-down: Ni-NTA agarose beads reacted with His-NEK2 overnight at 4 °C, then mixed with GST-tagged wt or truncated fragments of RhoGDI1 purified from E. coli overnight at 4 °C; three washes; WB with NEK2 and GST antibodies; both purified
T6 sequence: T1 sequence

B1: Flag-tagged RhoGDI1 (Rho guanine nucleotide dissociation inhibitor 1) (protein, UniProt P52565 1-204)
chain: T3 sequence
With B1 as the binder, how does the binding [1] read?
Its binding is “binds”.

B2: GFP-tagged RhoGDI1 aa 112–134 (domain or fragment, UniProt P52565 112-134)
chain: IKISFRVNREIVSGMKYIQHTYR
B2 was tested. Which binding [2] did it give?
The binding was “binds”.

B3: 14-3-3 tau (endogenous) (protein, UniProt P27348 1-245)
chain: MEKTELIQKAKLAEQAERYDDMATCMKAVTEQGAELSNEERNLLSVAYKNVVGGRRSAWRVISSIEQKTDTSDKKLQLIKDYREKVESELRSICTTVLELLDKYLIANATNPESKVFYLKMKGDYFRYLAEVACGDDRKQTIDNSQGAYQEAFDISKKEMQPTHPIRLGLALNFSVFYYEILNNPELACTLAKTAFDEAIAELDTLNEDSYKDSTLIMQLLRDNLTLWTSDSAGEECDAAEGAEN
B3 was tested. Which binding [3] did it give?
Its binding is “binds”.

B4: active His-NEK2 (recombinant His-tagged NEK2) (enzyme, UniProt P51955 1-445)
chain: T1 sequence
What does the source list for B4?
binding [4]: binds; binding [5]: no binding

B5: endogenous NEK2 (enzyme, UniProt P51955 1-445)
chain: T1 sequence
Which binding [6] does the source give for B5 here?
Its binding is “binds”.

And the binding [7]?
Its binding is “binds”.

B6: GST-tagged RhoGDI1 wild type (WT) (protein, UniProt P52565 1-204)
chain: T3 sequence
How did the binding [8] turn out when B6 was run?
Its binding is “binds”.

B7: GST-tagged RhoGDI1 aa 1–134 (domain or fragment, UniProt P52565 1-134)
chain: MAEQEPTAEQLAQIAAENEEDEHSVNYKPPAQKSIQEIQELDKDDESLRKYKEALLGRVAVSADPNVPNVVVTGLTLVCSSAPGPLELDLTGDLESFKKQSFVLKEGVEYRIKISFRVNREIVSGMKYIQHTYR
B7 was tested. Which binding [8] did it give?
Its binding is “binds”.

B8: GST-tagged RhoGDI1 aa 68–201 (domain or fragment, UniProt P52565 68-201)
chain: PNVVVTGLTLVCSSAPGPLELDLTGDLESFKKQSFVLKEGVEYRIKISFRVNREIVSGMKYIQHTYRKGVKIDKTDYMVGSYGPRAEEYEFLTPVEEAPKGMLARGSYSIKSRFTDDDKTDHLSWEWNLTIKKD
B8 was tested. Which binding [8] did it give?
Its binding is “binds”.

B9: GST-tagged RhoGDI1 aa 112–134 (domain or fragment, UniProt P52565 112-134)
chain: IKISFRVNREIVSGMKYIQHTYR
Which binding [8] does the source give for B9 here?
The binding was “binds”.

B10: GST-tagged RhoGDI1 aa 68–89 (domain or fragment, UniProt P52565 68-89)
chain: PNVVVTGLTLVCSSAPGPLELD
With B10 as the binder, how does the binding [8] read?
Its binding is “binds weakly”.

B11: Flag-tagged RhoGDI2 (protein, UniProt P52566 1-201)
chain: T5 sequence
B11 was tested. Which binding [1] did it give?
The binding was “no binding”.

B12: GST-tagged RhoGDI1 aa 1–67 (domain or fragment, UniProt P52565 1-67)
chain: MAEQEPTAEQLAQIAAENEEDEHSVNYKPPAQKSIQEIQELDKDDESLRKYKEALLGRVAVSADPNV
With B12 as the binder, how does the binding [8] read?
The binding was “no binding”.

B13: GST-tagged RhoGDI1 aa 90–111 (domain or fragment, UniProt P52565 90-111)
chain: LTGDLESFKKQSFVLKEGVEYR
For B13, which binding [8] is on record?
The binding was “no binding”.
